# Results taken from patent EP4810497A1, “ISOQUINOLINE DERIVATIVE, SYNTHESIS METHOD THEREFOR, AND USE THEREOF” (Harbin Gloria Pharmaceuticals Co., Ltd., priority 2023, dated 2025).
# Tested on: SH-SKN cell lines
# Conditions: 10 µM; for activity of enhancing mitochondrial respiration: Table 2
SMILES,basal respiratory rate (normal cells (control)),maximum respiratory rate (normal cells (control)),activity of enhancing mitochondrial respiration
Nc1nc(N2CCN(C(=O)[C@H]3CCCO3)CC2)cc2cc3c(cc12)OCC3 [Compound T6],activated,activated,–
Nc1nc(N2CCN(C(=O)[C@H]3CCCO3)CC2)cc2cc3c(cc12)OCCO3 [Compound T10],–,–,no activity of activating mitochondrion
Nc1nc(N2CCN(C(=O)c3ccco3)CC2)cc2cc3c(cc12)OCO3 [Compound T11],–,–,no activity of activating mitochondrion
"COc1cc2nc(N3CCN(C(=O)C4CCCO4)CC3)nc(N)c2cc1OC (centres unmarked) [Terazosin, terazosin, reference compound]",–,–,exhibited the activity of enhancing mitochondrial respiration
